One data set concerns the target Truncated mTOR kinase (Homo sapiens, UniProt P42345). Put plainly: biochemical. On the procedure: Truncated mTOR kinase and His-tagged 4eBP1 were produced in-house. [γ^33P]-ATP was purchased from Amersham (GE Healthcare). All chemicals, unless otherwise stated, were from Sigma-Aldrich.
Phosphorylation assays were initially performed in a final volume of 20 μL in 384-well polypropylene plate (Greiner). […] After 1 hour incubation at room temperature, the reaction was terminated with 40 μL/well of 20 mM EDTA/1 mM ATP solution.
The plate was washed 4 times with 120 μL/well of 0.5% phosphoric acid via vacuum filtration. Finally, 10 μL/well of Optiphase™ SuperMix liquid scintillation cocktail (Perkin Elmer) was added. After minimum 1 hour of incubation, counting was performed in a Wallac MicroBeta TriLux scintillation counter using coincidence counting mode with crosstalk correction.

Data set [1] deals with Recombinant PI3K p110α/p85 (Homo sapiens, UniProt P42336). As to conditions: read-out: PI3K. On the procedure: Recombinant PI3K p110α/p85 was prepared in-house. Phosphatidylinositol (PtdIns), phosphotidylserine (PtdSer) and all other unspecified chemicals were purchased from Sigma-Aldrich. [γ^33P]ATP and Optiphase scintillant were obtained from Perkin Elmer.
Assays were performed in a final assay volume of 25 μL in 384-well Maxisorp plates (Nunc). […] Maxisorp plates were coated with 20 μL/well of a 1:1 mixture of PtdIns and PtdSer [0.1 mg/mL each dissolved in chloroform:ethanol (3:7)] and left overnight in a fume hood at room temperature (RT) to dry.
The reaction was incubated for 1 hour at RT and terminated with 30 μL/well of 50 mM EDTA solution. The plate was then washed twice with TBS, dried, and added with 30 μL/well of scintillant before it was counted in a MicroBeta Trilux.

pIC50: −log10 of the molar value. Like-named read-outs stand apart in the source and are kept apart here.

With `CCC(C)n1c(Br)nc2c(-c3cnc(N)nc3)nc(N3CCOCC3)nc21` (centres unmarked) [Cmpd A], the pIC50 on Truncated mTOR kinase was 7.68; in data set [1], 7.37. The “stability in human liver microsome studies, assessment in words” value (“stability” for short) (human, microsomes) was “acceptable stability”.

As to `CC(C)n1c(Br)nc2c(-c3cnc(N)nc3)nc(N3CCOCC3)nc21` [Cmpd B], the pIC50 against Truncated mTOR kinase is 7.80; in data set [1], 7.77. Moreover, the “stability” value (in vitro metabolic stability) is listed as “acceptable stability”.

In the case of `CCc1nc2c(-c3cnc(N)nc3)nc(N3CCOCC3)nc2n1C(C)C` [Cmpd C], the pIC50 against Truncated mTOR kinase is 7.57; in data set [1], 7.80.

`CCC(C)n1c(C)nc2c(-c3cnc(N)nc3)nc(N3CCOCC3)nc21` (centres unmarked) [Cmpd D]: the pIC50 against Truncated mTOR kinase was 7.40; in data set [1], 7.82.

`CCC(C)n1cnc2c(-c3cnc(N)nc3)nc(N3CCOCC3)nc21` (centres unmarked) [Cmpd E]: the pIC50 is 6.91 against Truncated mTOR kinase and 7.74 in data set [1]. Moreover, the “activity against mTOR, assessment in words” value on Truncated mTOR kinase (compared with the other compounds tested) is “significantly lower activity”. The “stability” value (human, microsomes) was “acceptable stability”.

(Values after patent US9138437B2, “Pyrimidine substituted purine compounds as kinase (S) inhibitors” (VERASTEM, INC., priority 2009, dated 2015).)
